This is an account of results in publication PMC10668032.

The list shows a part of the results. At the low end of the ranking, values are background and their order means little.

This assay has as its target SIX1-Q177R homeodomain (UniProt Q15475). Description: universal protein binding microarray. As to conditions: Universal all-10-mer PBM (8x60K, AMADID 030236), 300 nM GST-tagged protein, Alexa Fluor 488 anti-GST; buffer, salt, pH and temperature not stated; high values mean tight binding; most listed sequences are background and not binding sites; double strand, one strand shown.
As to ATAACAGG, the binding signal is -0.0176 E-score.
With CCGATCTA, the binding signal was -0.0594 E-score.
On to CCGCGGCA, for which the binding signal was -0.079 E-score.
For CGGTGTTC, the binding signal turned out to be 0.476 E-score.
Under CTATTAGA stands -0.094 E-score; under CTATTGAC, 0.0373 E-score.
With CCGCAGCG the figure was -0.0724 E-score; with ATAAGTAT, -0.111 E-score.
With ACCCGTAG the figure was 0.149 E-score.
On to ACGTCTTG, for which the binding signal was -0.037 E-score.
Turning to CAACGTTA, the binding signal was -0.187 E-score.
Consider CTCATTTA, for which the binding signal was -0.206 E-score.
With CGCGAAAA the figure was 0.0628 E-score.
With ATGAGGGA the figure was 0.00326 E-score; with AATATGCT, -0.221 E-score; with CCGAGTAG, 0.123 E-score.
As for CGGATTAC, the binding signal was found to be 0.103 E-score.
Under CGACCTTC stands -0.0704 E-score.
As for AGGGCATG, the binding signal came out at 0.0655 E-score.
On to CCGCCAGG, for which the binding signal was -0.0213 E-score.
Consider CCGGTGTA, for which the binding signal stood at 0.486 E-score.
For CAGCTCCG, the binding signal was -0.0751 E-score.
As to AGACCTCC, the binding signal is -0.152 E-score.
Take CCAGAGGG: the binding signal is -0.0214 E-score.
In the case of ACTACGCG, the binding signal amounted to 0.0606 E-score.
Under ACTTAACT stands -0.0249 E-score; under CCCTCCCG, 0.139 E-score.
Take TGGAATAA: the binding signal is -0.091 E-score.
As for CAAAGCGG, the binding signal was -0.126 E-score.
Under CTTAGTGA stands -0.115 E-score; under ATAGGAAA, -0.134 E-score.
Under AGACCTCT stands -0.159 E-score; under AGCCGAAA, -0.0444 E-score; under CGGTTGTA, -0.0492 E-score.
On to AACTACCG, for which the binding signal was -0.112 E-score.
With CTCTTATC the figure was 0.0166 E-score; with ACCAAACC, 0.134 E-score; with CTTCAGCA, -0.239 E-score.
CACTTCGA: the binding signal was determined as 0.127 E-score.
As for CTAACGGA, the binding signal was -0.0618 E-score.
With CAGGACAA the figure was -0.127 E-score.
In the case of AAGCCATA, the binding signal was -0.223 E-score.
Under ACGGCATA stands -0.192 E-score.
For AGTGAGTC, the binding signal was -0.0424 E-score.
With CTGTATGC the figure was -0.209 E-score; with GTTAATAA, -0.027 E-score.
Under ACTTACGC stands 0.164 E-score; under AAGATCAT, -0.0882 E-score.
With CCGAATAG the figure was -0.123 E-score; with GCATTTGA, -0.112 E-score; with CAAAACTA, 0.0571 E-score.
Take GCGTCTCA: the binding signal was 0.0592 E-score.
With ACTTTGTA the figure was -0.0907 E-score; with GCGTAACA, 0.199 E-score.
On to GAATCAGA, for which the binding signal was -0.223 E-score.
Under AACCAGTA stands -0.0806 E-score.
As to AATTGCCC, the binding signal was -0.21 E-score.
For GTCATAAA, the binding signal is -0.118 E-score.
Regarding CTCTCTCA, the binding signal turned out to be 0.00782 E-score.
As to ACACTGTA, the binding signal turned out to be 0.351 E-score.
Consider CCAATAAC, for which the binding signal is -0.0801 E-score.
Consider CCGATCCA, for which the binding signal is 0.188 E-score.
For the sequence AAAATTGA, the binding signal was -0.175 E-score.
For CTTCTCAC, the binding signal is -0.102 E-score.
Under CTGCTATC stands -0.0997 E-score; under CACGTTGC, 0.0561 E-score.
Under ATGAATTC stands -0.0691 E-score.
In the case of ACAATGTC, the binding signal was -0.12 E-score.
With GCAACTAA the figure was -0.0291 E-score.
Turning to AGCTGGCG, the binding signal was determined as 0.0356 E-score.
On to CTCTGGAA, for which the binding signal is -0.0805 E-score.
CGTATCCC: the binding signal came to 0.142 E-score.
For the sequence CATGTTAA, the binding signal is -0.231 E-score.
Under ATGCTAGA stands -0.197 E-score; under CAGAGTAA, 0.0237 E-score.
GAGTAGGA: the binding signal is -0.0751 E-score.
AGAATAAC: the binding signal was -0.0603 E-score.
Consider GGACTACC, for which the binding signal is 0.0243 E-score.
With CTTGGCCC the figure was -0.271 E-score.
Under CGGAATAA stands -0.0943 E-score.
Under AGGTTCAC stands -0.176 E-score; under TCTACTCA, -0.028 E-score; under AAAAAGGT, -0.0279 E-score.
With ATCGCATG, the binding signal was -0.142 E-score.
Regarding CTCCCTCA, the binding signal is -0.0496 E-score.
With GTATAGAA the figure was -0.0205 E-score.
As for CCGACCAC, the binding signal was 0.192 E-score.
With GCCCCTCC the figure was 0.11 E-score.
Under AAAGCCGG stands -0.145 E-score; under CCCGCTAA, -0.0616 E-score.
Under CAGTGAAG stands -0.104 E-score.
On to GTTAGAAC, for which the binding signal came to 0.0421 E-score.
With GGCTCCAA the figure was -0.173 E-score; with AGTGTGCC, 0.159 E-score.
With ACGTTGCG the figure was -0.142 E-score; with AATGCAAC, -0.0298 E-score.
Under GTACCAAC stands 0.0882 E-score; under AGCGTACG, 0.105 E-score.
As to CCGTAAGA, the binding signal was -0.109 E-score.
With AGGCACGA the figure was -0.0282 E-score.
Take ATCGTAAT: the binding signal is -0.128 E-score.
As to AATTATCC, the binding signal was -0.0487 E-score.
Under TCTGTGCA stands -0.135 E-score; under GTATCGGA, 0.254 E-score; under AATACTAT, -0.26 E-score.
As for TCCAAACA, the binding signal stood at 0.0943 E-score.
Under CGTTCCAA stands -0.0101 E-score; under AAATTGCG, -0.0199 E-score; under AAGTATTG, 0.0199 E-score.
Under AGCGACAT stands -0.095 E-score; under CGTCATAC, 0.128 E-score; under CTGGGGTC, 0.229 E-score.
Under TGGATAAA stands -0.096 E-score; under CTATATCC, 0.0435 E-score.
As for GAAAGGTA, the binding signal was -0.136 E-score.
For ACGCGACT, the binding signal was 0.0834 E-score.
With CTTTATGC the figure was -0.0588 E-score; with ATCGGACG, -0.172 E-score.
With CACTTTAG the figure was 0.0962 E-score; with TACCGGCA, -0.091 E-score.
Under GAACCTCC stands -0.0187 E-score; under GATAAAAA, -0.131 E-score; under CGCTGGGA, -0.0669 E-score.
Turning to GCTGGATA, the binding signal amounted to 0.0148 E-score.
With AGACGTAT the figure was -0.237 E-score; with CTCTCCTA, -0.0625 E-score.
With ATAATCTG the figure was -0.24 E-score; with TGACATAA, 0.0542 E-score.
With CGGGAGTA the figure was 0.26 E-score; with AATGTGAC, -0.226 E-score.
Regarding CAAACGGA, the binding signal was -0.342 E-score.
With GGGCGTAC, the binding signal was determined as 0.131 E-score.
CGTTTCTA: the binding signal stood at 0.00713 E-score.
With CCACGCTA the figure was -0.155 E-score; with ACGAAGAC, 0.0283 E-score; with ATGCTTAC, -0.18 E-score.
Under CTCATTAA stands 0.047 E-score; under GAGGTCCA, -0.163 E-score; under ATCTGCAG, -0.0672 E-score.
With CGCGCTAC, the binding signal worked out at 0.15 E-score.
As for AGTGGACA, the binding signal came to 0.149 E-score.
With TAAGAAGA the figure was -0.218 E-score; with AGTGGATG, -0.0627 E-score.
Turning to AGGGCATC, the binding signal was -0.191 E-score.
Turning to ATCTATTG, the binding signal is -0.18 E-score.
In the case of GAGTACTA, the binding signal stood at 0.0555 E-score.
With AACCTCTG, the binding signal is -0.055 E-score.
Under AATACAAA stands 0.0385 E-score; under GCCGGCCA, -0.121 E-score.
With ATCCGGTC the figure was 0.08 E-score; with CCTTATCC, -0.00249 E-score; with AAGTTTTC, -0.121 E-score.
Under ATAAGGAC stands -0.12 E-score; under AGCTGAAA, -0.251 E-score.
In the case of ACTTAAAA, the binding signal was -0.345 E-score.
With TCTAGGCA the figure was -0.162 E-score.
With ACTAACGG the figure was 0.0282 E-score.
As for ACCTGAGG, the binding signal came to 0.0472 E-score.
Take AAGGCAGA: the binding signal is -0.164 E-score.
Under CAGCGCCA stands -0.104 E-score; under CCGCATAC, 0.0975 E-score; under ATGATGAC, 0.0166 E-score.
With ACCCCATA the figure was 0.249 E-score; with AGCCCTGA, -0.106 E-score.
With CGCGTCCC the figure was -0.0913 E-score; with GATAGCCA, -0.279 E-score; with CGCTATTA, 0.066 E-score.
Take CGAGTTAG: the binding signal is -0.056 E-score.
Turning to TCAAATGA, the binding signal was -0.181 E-score.
Under AGACCTTG stands -0.154 E-score.
Under AGTCAACA stands 0.0535 E-score; under CATCCTTA, 0.0708 E-score.
